Source: the supplement of paper PMC7266297
Counter-ions that a name gives are not always drawn. The list shows a part of the results. Single values are uncertain, as repeats are few or missing.

test system: KB-3-1; experiment: growth inhibition relative to DMSO control (SRB); cervical cancer cells: KB-3-1 is the parent and KB-V1 overexpresses MDR1; SRB is the sulforhodamine B stain; higher = more growth inhibition; conditions: 1 µM; 72 h
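Note: Read-out is SRB optical density at 490 nm, with the control being wells given 0.5% DMSO vehicle, and compound added one day after cells were plated.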

Row | Structure (SMILES) | growth inhibition
1 | CN(C)CCN(Cc1ccccc1)c1ccccn1 [Tripelennamine HCl] | 5.06%
2 | C=CC(=O)Nc1ccc2ncnc(Nc3ccc(OCc4cccc(F)c4)c(Cl)c3)c2c1 | 31.2%
3 | O=C1NCCc2[nH]c(-c3ccncc3)cc21 | < 0%
4 | CCc1c(C(=O)NCCc2ccc(N3CCCCC3)cc2)[nH]c2ccc(Cl)cc12 | 12.1%
5 | COCCCC/C(=N\OCCN)c1ccc(C(F)(F)F)cc1 [Fluvoxamine maleate] | 13.2%
6 | Cc1ccc(-c2cc(C(F)(F)F)nn2-c2ccc(S(N)(=O)=O)cc2)cc1 [Celecoxib] | < 0%
7 | COc1cc(-c2ncn(/C=C\C(=O)OC(C)C)n2)cc(C(F)(F)F)c1 | 80.1%
8 | Cc1nc(NC(=O)N2CCC[C@H]2C(N)=O)sc1-c1ccnc(C(C)(C)C(F)(F)F)c1 | 27.4%
9 | Cc1ccc(Nc2c(F)cccc2Cl)c(CC(=O)O)c1 [Lumiracoxib] | < 0%
10 | O=C(O)CCc1ccc(NCc2cccc(Oc3ccccc3)c2)cc1 | 40.7%
11 | c1ccc(-c2nn3c(c2-c2ccnc4cc(OCCN5CCOCC5)ccc24)CCC3)nc1 | < 0%
12 | CC[N+](CC)(CC)CCOc1cccc(OCC[N+](CC)(CC)CC)c1OCC[N+](CC)(CC)CC [Gallamine Triethiodide] | 31.3%
13 | CNC(=O)c1ccc(N2C(=S)N(c3ccc(C#N)c(C(F)(F)F)c3)C(=O)C2(C)C)cc1F [Enzalutamide (MDV3100)] | 40.2%
14 | Cc1cc(C(C)(C)C)c(O)c(C)c1CC1=NCCN1 [Oxymetazoline HCl] | 27.8%
15 | Cc1cc2c(cc1CC(=O)c1sccc1S(=O)(=O)Nc1onc(C)c1Cl)OCO2 [Sitaxentan sodium] | < 0%
